According to publication PMC6919601, “Identification of Plasmodium dipeptidyl aminopeptidase allosteric inhibitors by high throughput screening” (PLoS ONE, 2019):
“And” between values parts separate entries of the source, which are not always exact repeats. Equal entries are not always repeated. Screen size: about 110,000 compounds; about 230 (0.21%) showed an effect of 50% or more. The list shows a part of the results.

Target: DPAP1 (Plasmodium falciparum, UniProt Q8IIJ9)
Test: primary screen, percent inhibition; read by cleavage of a fluorogenic dipeptide substrate; higher = more effect of the substance
Design: species or system P. falciparum D10 trophozoite lysates; single well
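Note: 30 min substrate incubation versus DMSO and 10 µM JCP410 controls.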

DPAP1, sequence (Q8IIJ9 whole entry, looked up): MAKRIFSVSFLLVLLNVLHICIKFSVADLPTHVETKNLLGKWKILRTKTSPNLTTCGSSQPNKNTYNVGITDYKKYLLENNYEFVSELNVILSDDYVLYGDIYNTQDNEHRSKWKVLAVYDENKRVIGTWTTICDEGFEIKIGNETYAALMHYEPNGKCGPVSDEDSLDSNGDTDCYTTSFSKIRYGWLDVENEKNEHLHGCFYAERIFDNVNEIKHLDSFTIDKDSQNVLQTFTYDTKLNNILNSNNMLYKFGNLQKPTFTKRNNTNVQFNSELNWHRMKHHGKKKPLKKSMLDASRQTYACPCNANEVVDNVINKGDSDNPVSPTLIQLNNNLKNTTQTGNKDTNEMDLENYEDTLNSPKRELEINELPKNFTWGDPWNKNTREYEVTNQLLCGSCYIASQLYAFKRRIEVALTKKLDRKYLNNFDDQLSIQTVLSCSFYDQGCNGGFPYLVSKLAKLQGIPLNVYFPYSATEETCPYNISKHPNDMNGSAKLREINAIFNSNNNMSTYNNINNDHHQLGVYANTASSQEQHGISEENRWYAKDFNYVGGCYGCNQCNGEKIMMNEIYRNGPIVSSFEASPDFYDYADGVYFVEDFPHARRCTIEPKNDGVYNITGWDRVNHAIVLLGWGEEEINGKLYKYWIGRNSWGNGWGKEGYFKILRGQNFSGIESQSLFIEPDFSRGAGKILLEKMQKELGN

SMILES | % Inhibition @ 10 uM
CCCOc1ccc(C2C(=O)N(C3CCC(C)CC3)CC(=O)N2Cc2ccc(F)cc2)cc1OC (stereo not shown) | -0.406%
Cc1nn(Cc2ccccc2)c(C)c1Cc1ccccc1 | -0.744%
CSc1ncc(C(=O)N2CCN(c3ncccn3)CC2)c(C)n1 | -2.48%
COc1ccc(N(CC(=O)NC2CCCCC2)S(C)(=O)=O)cc1Cl | -5.26% and -5.07%
CCSC1=C(C#N)C(c2ccccc2Cl)CC(=O)N1 (stereo not shown) | 0.962%
Cc1ccc(NC(=O)c2cc(F)c(F)cc2Cl)nc1 | -5.36%
COc1ccc(CCNC(=O)Cn2nnc3sc(-c4ccccc4)cc3c2=O)cc1OC | 6.85%
CCN(CC)c1ccc(C2Nc3ccc4ccccc4c3C3=C2C(=O)CC(C)(C)C3)cc1 (stereo not shown) | -4.26%
CC(C)OC1=C(OC(C)C)C(C2(c3ccccc3O)SCCCS2)C1=O (stereo not shown) | -3.04%
O=C(CCNc1c(N2CCCC2)c(=O)c1=O)NC1CCCCC1 | 3.3%
Cc1ccc(C2CC(C(F)(F)F)n3ncc(C(N)=O)c3N2)cc1 (stereo not shown) | 5.73%
CCC(C)OC(=O)C1=C(C)NC(=O)CC1c1ccccc1C(F)(F)F (stereo not shown) | -3.51%
c1coc(CNC2CCCCCCC2)c1 | -3.6%
CCN1CCN(C(C)CCc2ccccc2)CC1 (stereo not shown) | -2.34%
Cc1cc(=O)n2nc(N3CCC(C(=O)NC4CCN(Cc5ccccc5)CC4)CC3)sc2n1 | -0.281%
CC(C)c1nc(N2CCN(C(=O)c3ccccc3)CC2)c(C#N)c2c1COC(C)(C)C2 | -0.884%
C(=C\c1ccccc1)/CN1CCN(C/C=C/c2ccccc2)CC1 | 2.91%
O=C(Nc1cccnc1)c1cc(-c2ccc(Br)cc2)nc2ccccc12 | -3.02%
COc1cccc(OCC(O)CN2CCN(c3ccc(F)cc3)CC2)c1 (stereo not shown) | -0.795%
CCCCCCn1c(=O)c(C(=O)Nc2ncc(C)s2)c(O)c2ccccc21 | -1.64%
CCNCC(O)CN1CCC(C)CC1 (stereo not shown) | 0.878%
CCN1CCN(Cc2ccccc2Cl)CC1 | 3%
Cc1ccc(Cn2c3ccccc3c3cnnc(O)c32)cc1 | -0.0309%
CC12CCC3(C=C1CCCC21SCCS1)SCCS3 (stereo not shown) | -1.37%
CCN1CCC(NCCC(c2ccccc2)c2ccccc2)CC1 | -1.15%
COc1ccc(-c2nc3s/c(=C\c4ccc(OCC(N)=O)cc4)c(=O)n3n2)cc1OC | 6.96%

SMILES | % Inhibition @ 10 uM
N#CCNC(=O)[C@H](CSCc1ccncc1)NC(=O)c1ccccc1 | -3.49%
Cc1oc2c(c1C(=O)NC1CCS(=O)(=O)C1)C(=O)c1ccccc1C2=O (stereo not shown) | -3.53%
O=C(Nc1cccnc1Cl)C1c2ccccc2Oc2ccccc21 | -3.33%
CCOC(=O)/C(=C\c1ccccc1)NC(=O)c1ccccc1 | -3.58%
O=C(/C=C/c1ccco1)NCC1(c2ccccc2)CCOCC1 | 0.685%
Cc1cc(/C=C2\NC(=O)NC2=O)c(C)n1-c1cccc(Cl)c1 | 2.38%
Cc1ccc(OCC(=O)N2CCN(C3=NS(=O)(=O)c4ccccc43)CC2)cc1 | 2.05%
CCc1c(C)sc(NC(=O)c2cccnc2Cl)c1C#N | 5.58%
Nc1nc(-c2cccnc2)nn1C(=O)Cc1ccccc1 | 3.93%
CCCN1CCC(N2CCN(C(=O)OCC)CC2)CC1 | -3.6%
COc1ccc(NC(=O)C(N)=O)cc1 | -0.414%
COc1cccc(CN2CCN(Cc3ccccc3C)CC2)c1 | -0.822%
CC(C)c1ccc(C2C(C#N)=C(N)OC3=C2C(=O)CC(C)(C)C3)cc1 (stereo not shown) | 1.41%
CC(=O)N1CCC(NCCc2c[nH]c3ccccc23)CC1 | -2.02%
COc1ccc(/N=C2/S/C(=C\c3cc(Br)ccc3OCC#N)C(=O)N2C)cc1 | 7.16%
O=C(Nc1ccccc1)c1ccccc1NC(=O)C1CCCCC1 | 3.49%
CN1C(=O)C(=Cc2cccn2-c2ccc([N+](=O)[O-])cc2)C(=O)N(C)C1=O | 4.5%
Cc1ccnc(NC(=O)C2CCCCC2C(=O)O)c1 (stereo not shown) | -2.9%
COc1ccc2c(CNCc3ccc(C)o3)c(C(=O)O)n(Cc3cccc(F)c3)c2c1 | 4.63%
Cc1cc2oc(=O)c(CC(=O)O)c(C)c2c2occ(-c3ccc(Cl)cc3)c12 | 0.558%
O=S(=O)(NCCN1CCCCCC1)c1ccc2nc(O)ccc2c1 | 0.807%
Cc1cccc(NC(=O)C(c2ccccc2)N2Cc3ccccc3C2=O)n1 (stereo not shown) | -1.59%
Cc1ccc(-n2nc(C)c3c(C)cc(=O)oc32)cc1 | -6.08%
COc1ccc2[nH]c3c(=O)n(CCCC(=O)N4CC=C(c5ccccc5)CC4)c(=S)[nH]c3c2c1 | -2.19%
O=C(O)CCCn1cc(NC(=O)c2ccc3c(c2)OCO3)cn1 | -0.403%
CC(=O)c1cccc(NC(=O)Cn2c(-c3nonc3N)nc3ccccc32)c1 | 1.62%
